Test results as given in PubChem BioAssay AID1346428 (National Center for Advancing Translational Sciences (NCATS), 2018).
Several values for one entry are separate records, joined by “and”; a condition that tells them apart may be missing. Equal values may be shown once. About 1,200 (2.5%) of roughly 48,000 compounds were called active. Inconclusive results (about 2%) are left out.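 Rule for the calls: active = activation of at least 60% and not above a set upper limit (about 1 call in 100 departs from these limits); inconclusive = activation of 40% to 60%, or above that upper limit; inactive = activation under 40%.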 Some of the results follow.
Note: 0% is about no effect.

These compounds were tested against Probable G-protein coupled receptor 32 (Homo sapiens) (UniProt O75388) (assay: qHTS for Agonists of Human Resolvin D1 Receptor DRV1). Details: CHO-K1 GPR32 beta-arrestin PathHunter luminescence, 90 min; at 76.9 µM; active compounds read high; zero percent set by DMSO-only wells.
UniProt O75388, sequence (O75388 whole entry, looked up, the tested form may be a part): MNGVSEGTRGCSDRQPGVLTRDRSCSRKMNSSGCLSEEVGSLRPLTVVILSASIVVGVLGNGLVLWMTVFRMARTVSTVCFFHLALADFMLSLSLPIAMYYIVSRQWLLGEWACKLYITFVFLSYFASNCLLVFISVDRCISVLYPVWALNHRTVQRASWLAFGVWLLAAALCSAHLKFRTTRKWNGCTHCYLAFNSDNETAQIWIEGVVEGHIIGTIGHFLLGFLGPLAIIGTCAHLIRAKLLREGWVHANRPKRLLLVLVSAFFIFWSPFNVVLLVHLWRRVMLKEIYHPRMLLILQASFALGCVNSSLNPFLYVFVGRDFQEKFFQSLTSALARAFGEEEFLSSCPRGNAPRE
Summary of the method: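 GPR32 activation in stably transfected CHO-K1 cells, detected as beta-arrestin recruitment by enzyme-fragment complementation. Compound exposure: 90 min, 37 °C.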
For `CCCCNC(=O)CSc1c2c(nc3ccc(Cl)cc13)CCCC2`, the activation was inactive: -17.8%. In the case of `COc1ccc(-c2nc3ccccc3s2)cc1NC(=O)c1ccccc1OC`, the activation is reported as inactive: -0.45%. With `CNC(=O)c1c(NC(=O)c2cc(=O)c3ccccc3o2)sc2c1CCC2` the activation was inactive: -0.0766%. With `COc1ccc(CCNC(=O)c2ccc3c(c2)nc2n3CCOC2)cc1OC` the activation was inactive: -6.17%. For `COc1cccc(-c2cc(C(F)(F)F)nc(NCc3ccc(F)cc3)n2)c1`, the activation was inactive: -22.3%. For `COc1cccc(-c2nc(S(=O)(=O)c3ccccc3)c(NCc3ccccc3)o2)c1`, the activation was inactive: 1.29%. With `Cn1c(=O)c2sccc2n2c(CCCC(=O)Nc3ccc(F)c(F)c3)nnc12` the activation was inactive: 1.51%. `COCCCNC(=O)c1c(C)nn(-c2ccc(F)cc2)c1-n1cccc1` was tested, and the activation was inactive: 13.5%. `CC(C)c1ccc(NC(=O)CCS(=O)(=O)c2ccc(Br)s2)cc1` was tested, and the activation was inactive: -0.0674%. With `CC1=C(C(=O)Nc2ccccc2)C(c2ccncc2)n2nc(SCc3ccccc3)nc2N1` (stereo not given) the activation was inactive: 9.58%. For `Cc1c(C(=O)Nc2ccc(F)cc2F)nnn1-c1ccccc1Br`, the activation was inactive: 13.5%. In the case of `CCc1nn(CC(=O)NCc2cccc(OC)c2OC)c(=O)c2cc3occc3n12`, the activation is reported as inactive: -13.6%. In the case of `Cc1nnc(N2CCC(C(=O)NCc3ccc(N(C)C)cc3)CC2)c2nn(-c3ccccc3)c(C)c12`, the activation is reported as inactive: -14.9%. With `COc1ccc(NC(=O)C2=C(C)Nc3nc(SC)nn3C2c2cc(OC)ccc2OC)cc1` (stereo not given) the activation was inactive: 28.7%. For `O=C(NCCCO)C(=O)Nc1c2c(nn1-c1ccc(F)cc1)CSC2`, the activation was inactive: -12.8%. In the case of `Cc1ccc(C(=O)COC(=O)C(Cc2c[nH]c3ccccc23)NC(=O)c2ccc(Br)cc2)cc1` (stereo not given), the activation is reported as inactive: -16.3%. With `O=C(CSc1nc2ccccc2n1Cc1cccc(Cl)c1)N1CCN(c2ccc(F)cc2)CC1` the activation was inactive: -19.2%. `CN(CC(=O)Nc1cccc(C#N)c1)S(=O)(=O)c1cc2c(cc1Cl)NC(=O)CO2` was tested, and the activation was inactive: 17.3%. With `CCOc1ccccc1CNC(=O)CC(C)n1ccc(C)n1` (stereo not given) the activation was inactive: -1.78%. `O=C(Nc1ccc(Cl)cc1)c1ccc2c(c1)N(Cc1ccccc1)C(=O)c1ccccc1S2(=O)=O` was tested, and the activation was inactive: -18.2%. For `Cc1cc2oc(C(=O)Nc3cccc(-c4nc5ccccc5o4)c3)c(C)c2cc1Cl`, the activation was inactive: 28%. With `COc1ccc(OC)c(CNC(=O)Cn2nc(C)c3c(C)n(-c4ccccc4)nc3c2=O)c1` the activation was inactive: -8.21%. `O=C1C2=C(Nc3ccccc3SC2c2c(F)cccc2Cl)c2ccccc21` (stereo not given) was tested, and the activation was inactive: -7.24%. `COc1ccc(NC(=O)Nc2cn(CC(C)C)c(=O)c3ccccc23)c(OC)c1` was tested, and the activation was inactive: -28%. In the case of `COc1ccc(-c2cc(-c3ccccc3)nc3c2COc2ccc(Cl)cc2-3)cc1`, the activation is reported as inactive: 4.47%. In the case of `O=C(NCCc1ccc(F)cc1)C(=O)NCC(c1cccs1)S(=O)(=O)c1cccs1` (stereo not given), the activation is reported as inactive: 4.59%. With `COC(=O)c1ccc(NS(=O)(=O)c2ccc3[nH]c4c(c3c2)CCCCC4)cc1` the activation was inactive: 16.7%. For `Cc1oc2ncn(C)c(=O)c2c1C(=O)N(C)c1ccccc1F`, the activation was inactive: -11.2%. `CC(C)(C)OC(=O)N1CCC(c2c(C(=O)N3CCN(C4CCCCC4)CC3)cnn2-c2cccc(Cl)c2)CC1` was tested, and the activation was inactive: -25.4%. With `COc1ccc(NC(=O)CSC2=Nc3ccccc3C3=NC(CCC(=O)NCCc4ccccc4)C(=O)N23)cc1` (stereo not given) the activation was inactive: -6.89%. In the case of `CCN1C(=O)C(O)(c2c(C)[nH]c3ccccc23)c2ccccc21` (stereo not given), the activation is reported as inactive: 48.3%. For `CC(=O)N1CCCc2cc(S(=O)(=O)N3CCC(C(=O)NC4CCCCC4)CC3)ccc21`, the activation was inactive: 0.286%. In the case of `CCOC(=O)N1CCC(NC(=O)c2cnn(-c3cccc(C)c3)c2-n2cccc2)CC1`, the activation is reported as inactive: -4.49%. For `Cn1cc[nH]c1=S`, the activation was active: 65.4%. With `Cc1ccc(C)c(NC(=O)C(C)N(c2ccccc2)S(C)(=O)=O)c1` (stereo not given) the activation was inactive: -9.17%. For `Cc1oc2ncn(CC(C)C)c(=O)c2c1C(=O)Nc1ccc(Cl)cn1`, the activation was inactive: -5.97%. In the case of `Cc1cccc(-n2cc(-c3ccccc3)nc2SCC(=O)Nc2ccccc2Cl)c1`, the activation is reported as inactive: -25.6%. `Cc1ccc(C)c(S(=O)(=O)NCC(c2ccc(N(C)C)cc2)N2CCOCC2)c1` (stereo not given) was tested, and the activation was inactive: -25.6%. In the case of `O=C(NCc1ccccc1Cl)C1CCCN(c2nc3ccccc3n3cccc23)C1` (stereo not given), the activation is reported as inactive: -22.9%. For `CC(C)c1ccc(NS(=O)(=O)c2ccc3[nH]cc(C(=O)NC4CCCCC4)c(=O)c3c2)cc1`, the activation was inactive: -0.234%. With `CCOc1ccc(CNCCNC(=O)c2nonc2N)cc1` the activation was inactive: -0.0004%. With `Cc1cccc(OCCn2nnc3sc4c(c3c2=O)CCCC4)c1` the activation was inactive: -18.2%. In the case of `CCOC(=O)c1sc(NC(=O)c2nc(SC)ncc2Cl)c(C(=O)OCC)c1C`, the activation is reported as inactive: -6.2%. `CC1=C(C(=O)Nc2ccc(C)cc2C)C(c2ccc(C(C)C)cc2)n2nc(C(F)(F)F)nc2N1` (stereo not given) was tested, and the activation was inactive: -29.6%. For `COc1ccc(-n2c(-c3ccc(Cl)cc3)cc3c2CC(C)(C)CC3=O)c(OC)c1`, the activation was inactive: -24.1%. In the case of `Cc1ccc(NC(=O)Cn2nnc(-c3ccccc3)n2)c(C)c1`, the activation is reported as inactive: 20.2%. For `Cc1ccc(NC(=O)CN2C(=O)c3cccnc3Sc3ccccc32)c(Br)c1`, the activation was inactive: -13%. In the case of `Cc1ccc(Nc2c3c(nc4nncn24)CCC3)c(C)c1`, the activation is reported as inactive: -9.77%. With `COc1ccc2c(c1)-c1nc(NC(=O)c3cccc(Br)c3)sc1CC2` the activation was inactive: -32.2%. `CC1CCN(S(=O)(=O)c2cc(C(=O)N3CCN(c4cccc(Cl)c4)CC3)n(C)c2)CC1` was tested, and the activation was inactive: -2.1%. `O=C(C1COc2ccccc2O1)N(Cc1cccnc1)c1nc2c(F)cccc2s1` (stereo not given) was tested, and the activation was inactive: -13.4%. With `CCOC(=O)c1c(NC(=O)c2cc(-c3cccc(Cl)c3)on2)sc(C(C)=O)c1C` the activation was inactive: -12.1%. For `COc1ccc(N(CC(=O)N2CCc3ccccc3C2)S(=O)(=O)c2ccccc2)cc1`, the activation was inactive: 0.86%. In the case of `CCOC(=O)c1nnn(C(CC)C(=O)Nc2ccc(F)cc2)c1C(=O)OCC` (stereo not given), the activation is reported as inactive: 10.2%. For `COc1ccccc1C1C(C(=O)N2CCCCC2)=C(C)Nc2nc3ccccc3n21` (stereo not given), the activation was inactive: -5.32%. For `CCOc1ccc(S(=O)(=O)c2cn(CC)c3ccc(F)cc3c2=O)cc1`, the activation was inactive: 1.44%. `CSc1ccc(CCNC(=O)Cn2c(C)c3cnn(-c4ccccc4)c(=O)c3c2C)cc1` was tested, and the activation was inactive: 6.23%. `COc1cccc(/C=C/c2nc(C#N)c(NC3CCCCC3)o2)c1` was tested, and the activation was inactive: 49.1%. `Cc1ccc(CNC(=O)c2ccc(Cn3c(SCc4ccc(F)cc4)nc4cccnc43)cc2)o1` was tested, and the activation was inactive: -15.9%. For `O=c1n(Cc2ccc(F)cc2)c2ccccc2c2nc(-c3ccccc3)nn12`, the activation was inactive: -0.0545%. `CCc1cccc(NC(=O)CSc2nnc(-c3cc4occc4n3C)n2-c2ccccc2C)c1` was tested, and the activation was inactive: -28%. For `Cc1ccc(-n2nc(CO)c(C(=O)NCCC(C)C)n2)cc1C`, the activation was inactive: -4.08%. In the case of `COc1cccc(-n2c(=O)c3sc4ccccc4c3n(Cc3c(F)cccc3Cl)c2=O)c1`, the activation is reported as inactive: 2.79%. With `CCOC(=O)c1c(C)oc2nc(C)nc(NCC3CCN(Cc4cc(C)ccc4C)CC3)c12` the activation was inactive: 5.32%. For `CCCN(C(=O)CCc1nc(-c2ccc(C)cc2)no1)c1ccc(OCC)cc1`, the activation was inactive: -34.6%. With `Cc1ccc(N2C(=O)C(CC(=O)Nc3cccc(F)c3)N(CCc3ccccc3F)C2=O)cc1` (stereo not given) the activation was inactive: -19.2%. For `NC1=NCC2c3ccccc3Cc3ccccc3N12` (stereo not given), the activation was inactive: 0.786% and inactive: 7.66%. `CCc1ccc(OC(=O)CSc2nnc(-c3ccc(OC)c(OC)c3)o2)cc1` was tested, and the activation was inactive: -9.85%. For `CCNC(=O)c1ccc2c(c1)sc1nc(-c3cccc(OC)c3)cn12`, the activation was inactive: -11.5%. For `CC(Oc1ccccc1)C(=O)Nc1cccc(-c2cn3cccnc3n2)c1` (stereo not given), the activation was inactive: 39.5%. For `O=C(NCCc1ccccc1)c1ccc2c(c1)N(Cc1ccc(F)cc1Cl)C(=O)CS2`, the activation was active: 108%. For `Cc1ccc(NC(=O)N2CCC3(CC2)Oc2ccccc2C(=O)N3Cc2ccc(F)cc2)cc1`, the activation was inactive: -16.1%. In the case of `O=C(O)CCC(=O)O`, the activation is reported as inactive: 2.99%. In the case of `Cc1c2cnn(CC(=O)NC(C)C)c(=O)c2c(C)n1Cc1cccc(Cl)c1`, the activation is reported as inactive: 4.96%. For `COc1ccc(/C=C/c2nc(C#N)c(NCc3ccc(C)cc3)o2)cc1OC`, the activation was inactive: -20.3%. With `CCOc1ccc(NC(=O)CC2C(=O)N(c3ccccc3)C(=O)N2CCc2sccc2C)cc1` (stereo not given) the activation was inactive: -0.243%. In the case of `O=C(Cn1cc(SCc2cccc(Cl)c2)c2ccccc21)N1CCCCC1`, the activation is reported as inactive: -20%. `CCOc1nc(-c2ccccc2)ccc1-c1noc(-c2ccc(C)cc2)n1` was tested, and the activation was inactive: -13.4%. In the case of `Fc1ccc(-c2cc(-c3nc(-c4ccc(Cl)cc4)no3)[nH]n2)cc1`, the activation is reported as inactive: -2.89%. For `COc1ccc(S(=O)(=O)c2c(C(=O)c3ccc(C)c(C)c3)cnc3ccc(C)cc23)cc1`, the activation was inactive: -27.1%. `Cc1c(C(=O)OC2CCC(C)CC2)[nH]c2c1C(=O)CC(c1ccc(N(C)C)cc1)C2` (stereo not given) was tested, and the activation was inactive: -19.3%. With `CC(=O)c1ccc(NC(=O)c2nc(-c3ccc(Cl)cc3)n3c2CCCCC3)cc1` the activation was inactive: -20.4%. In the case of `CC(C)(C)OC(=O)N1CCC(c2c(C(=O)N3CCN(C(=O)c4ccco4)CC3)cnn2-c2cccc(Cl)c2)CC1`, the activation is reported as inactive: -4.48%. In the case of `Cc1ccccc1CSc1nc2c(sc3ccccc32)c(=O)n1CCCC(=O)NCCCOC(C)C`, the activation is reported as inactive: -15.1%. In the case of `COc1cccc(OCC(=O)NC2CC(=O)N(c3cccc(OC)c3)C2)c1` (stereo not given), the activation is reported as inactive: -8.9%.
